Data taken from patent US5098708A.

Tested on: human T-lymphotropic virus type III B (HTLV-IIIB)
Assay: Inhibition of HIV-induced cell damage in infected MT-4 cells (trypan blue dye exclusion)
Details: HIV-infected MT-4 cells; concentration higher than 25 μg/ml; FIG. 11

C/C1=C\C=C\C2(C)C=C(CO[C@H]3O[C@H](CO)[C@H](O)[C@H](O)[C@H]3O)C(C)CC23OC(O)C(C3=O)C(O)/C=C/C2(C)C=C(C=O)C(C)CC23OC(O)C(C3=O)C(O)/C(C)=C/C=C/C2C=C(CO[C@H]3O[C@H](CO)[C@H](O)[C@H](O)[C@H]3O)C(C)CC23OC(O)C(C3=O)C(O)/C=C/C2(C)C=C(C=O)C(C)CC23OC(O)C(C3=O)C1O (stereo partly shown)
Cell damage induced by HIV: significantly inhibited
